We go through 86 sequences from the supplement of paper PMC3334620.

Whole data set: some 33,000 sequences, median “E-score (-0.5 to 0.5)” near -0.04, cut for the highest 2% near 0.36. Some of the results follow.

The target in this assay is T1, Hmlalpha2 (UniProt P0CY09).
T1 sequence: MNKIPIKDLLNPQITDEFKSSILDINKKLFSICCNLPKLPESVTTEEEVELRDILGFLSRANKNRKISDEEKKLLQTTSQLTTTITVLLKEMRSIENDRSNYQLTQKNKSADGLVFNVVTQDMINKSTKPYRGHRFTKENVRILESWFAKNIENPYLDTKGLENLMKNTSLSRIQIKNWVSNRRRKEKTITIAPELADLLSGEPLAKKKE
As to the kind of experiment: PBM E-score (8-mer binding enrichment) (E-score (-0.5 to 0.5)); higher = stronger / more preferred TF binding; most listed sequences are background and not binding sites. Particulars: protein concentration: 200 nM; construct: GST-full length. In outline: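 The E-score, a modified Wilcoxon-Mann-Whitney statistic, was computed by the Universal PBM Analysis Suite for every ungapped eight-base word pooled with its reverse complement. Scans behind it were normalised with masliner after bound GST-tagged yeast transcription factors were detected with fluorescent anti-GST. The proteins, at about 100-200 nM, had been applied to universal all-10-mer Agilent arrays made double-stranded by primer extension.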
Consider ACTTATCC, for which the “PBM E-score” value is -0.0606.

Turning to AGTTGAGG, the “PBM E-score” value was -0.156. The result for GCCTGGAC reads -0.156; that for AAGGTTTC, -0.0464. For ACCTGCTA, the “PBM E-score” value was -0.104. The result for GAGCTTGA reads -0.0765; that for CGGAACCC, -0.13; that for ATTGAATC, -0.00112.

On to AGAGAAGG, for which the “PBM E-score” value is -0.317. The result for AGACTAAG reads -0.0834; that for ATTTCACG, 0.0853. The result for GGAAAATA reads 0.063; that for GAGCCTGA, -0.237; that for CCATAACG, -0.0424. In the case of AACGTCTA, the “PBM E-score” value is 0.039. The result for GAAGGTTA reads -0.023; that for ATAACTTC, 0.104; that for GCCACTGA, -0.155. Consider CCCTTGAG, for which the “PBM E-score” value was -0.247. The result for AAGGAGGA reads -0.0636; that for GTAGAGGA, -0.0447; that for CATTTGTC, 0.0765. Regarding CATGAGGG, the “PBM E-score” value is -0.0525.

In the case of GCCAGAGA, the “PBM E-score” value was -0.337. The result for CATACTGA reads 0.0935. On to ACCCTCGG, for which the “PBM E-score” value is -0.155. The result for GACATACA reads 0.315; that for ACTAACTG, 0.0122. The result for AACGCCGT reads 0.0331. The result for AATCAGCG reads 0.0106.

In the case of GCTGTATA, the “PBM E-score” value turned out to be 0.153. The result for ACACTGGA reads 0.106. Regarding AAATTCTC, the “PBM E-score” value was -0.0944. The result for GCATGGGA reads -0.142; that for GATCCCAA, -0.203. On to CGACCTGA, for which the “PBM E-score” value was determined as 0.0768. The result for CCTATTGC reads -0.112. Turning to AAATACCT, the “PBM E-score” value is -0.00338.

AAGACTGC: the “PBM E-score” value is -0.135. For the sequence TAAATAGA, the “PBM E-score” value was determined as 0.0679. The result for AGCGACTG reads 0.0914; that for ACACAGCA, 0.358. For the sequence CAGGAGCA, the “PBM E-score” value is -0.173. The result for CATCGTCC reads -0.0774; that for GCGGCCGA, -0.0773.

ATCACACG: the “PBM E-score” value turned out to be 0.371. The result for CGGTTTGA reads -0.00743; that for ATTCTGAA, -0.0572. The result for AGGGTTTG reads -0.0574; that for AAGTTTAG, 0.0291; that for CACCGCGC, -0.194. In the case of CCGAGCGG, the “PBM E-score” value was -0.261.

As to AGGAATCG, the “PBM E-score” value was -0.0981.

In the case of AGCCTCAG, the “PBM E-score” value was -0.219.

As to GTCATTTA, the “PBM E-score” value came out at 0.129. The result for CATGGTGC reads -0.0596; that for AAAGATTG, -0.157.

For CGGTTTGC, the “PBM E-score” value is -0.0322.

Consider ACTTAGGG, for which the “PBM E-score” value is -0.0611. As to CTGAATCC, the “PBM E-score” value was -0.154. The result for GGGCGGCA reads -0.297. On to ATTGGTGA, for which the “PBM E-score” value is -0.232. The result for CGTGGTGC reads -0.085; that for GGATGAGA, -0.127. For CCACATGC, the “PBM E-score” value came to 0.137. The result for GAGTTCAA reads 0.128; that for AAGATCCC, -0.145.

For AGGCGATC, the “PBM E-score” value was -0.142. The result for ACCGCGAT reads -0.0546; that for GCGCCAAC, -0.0446; that for ATTAAAAC, 0.26.

Take TCTTCTCA: the “PBM E-score” value is -0.172. The result for CGCGGGAG reads -0.317. With ACCAGAGT, the “PBM E-score” value was determined as 0.0585. As to GATCCTGC, the “PBM E-score” value is -0.0726. The result for AGAGTCCT reads -0.277; that for TACTGCCA, -0.0257; that for CCCGAAGC, -0.203.

On to GACCCAGA, for which the “PBM E-score” value was -0.168. The result for CACTTATG reads 0.00149; that for AGTGTACC, -0.201; that for TAGCCCGA, -0.335. The result for CCGATGAA reads -0.188. On to CTTTTTTC, for which the “PBM E-score” value was -0.134.

On to CTGGTTCC, for which the “PBM E-score” value was -0.208.

Turning to GCCGGCGC, the “PBM E-score” value is -0.136.
